Assay results reported in PMC4336329 (PLoS ONE, 2015).
The campaign covered roughly 310,000 compounds. About 2,200 (0.71%) showed an effect of 50% or more. The effect is printed as a negative number. The list shows a part of the results.

The molecules below were run against human ether-à-go-go-related gene (hERG) potassium channel (human, UniProt Q12809) (assay: primary screen, population patch clamp on CHO cells stably expressing hERG).
Chain of human ether-à-go-go-related gene (hERG) potassium channel (Q12809 whole entry, looked up): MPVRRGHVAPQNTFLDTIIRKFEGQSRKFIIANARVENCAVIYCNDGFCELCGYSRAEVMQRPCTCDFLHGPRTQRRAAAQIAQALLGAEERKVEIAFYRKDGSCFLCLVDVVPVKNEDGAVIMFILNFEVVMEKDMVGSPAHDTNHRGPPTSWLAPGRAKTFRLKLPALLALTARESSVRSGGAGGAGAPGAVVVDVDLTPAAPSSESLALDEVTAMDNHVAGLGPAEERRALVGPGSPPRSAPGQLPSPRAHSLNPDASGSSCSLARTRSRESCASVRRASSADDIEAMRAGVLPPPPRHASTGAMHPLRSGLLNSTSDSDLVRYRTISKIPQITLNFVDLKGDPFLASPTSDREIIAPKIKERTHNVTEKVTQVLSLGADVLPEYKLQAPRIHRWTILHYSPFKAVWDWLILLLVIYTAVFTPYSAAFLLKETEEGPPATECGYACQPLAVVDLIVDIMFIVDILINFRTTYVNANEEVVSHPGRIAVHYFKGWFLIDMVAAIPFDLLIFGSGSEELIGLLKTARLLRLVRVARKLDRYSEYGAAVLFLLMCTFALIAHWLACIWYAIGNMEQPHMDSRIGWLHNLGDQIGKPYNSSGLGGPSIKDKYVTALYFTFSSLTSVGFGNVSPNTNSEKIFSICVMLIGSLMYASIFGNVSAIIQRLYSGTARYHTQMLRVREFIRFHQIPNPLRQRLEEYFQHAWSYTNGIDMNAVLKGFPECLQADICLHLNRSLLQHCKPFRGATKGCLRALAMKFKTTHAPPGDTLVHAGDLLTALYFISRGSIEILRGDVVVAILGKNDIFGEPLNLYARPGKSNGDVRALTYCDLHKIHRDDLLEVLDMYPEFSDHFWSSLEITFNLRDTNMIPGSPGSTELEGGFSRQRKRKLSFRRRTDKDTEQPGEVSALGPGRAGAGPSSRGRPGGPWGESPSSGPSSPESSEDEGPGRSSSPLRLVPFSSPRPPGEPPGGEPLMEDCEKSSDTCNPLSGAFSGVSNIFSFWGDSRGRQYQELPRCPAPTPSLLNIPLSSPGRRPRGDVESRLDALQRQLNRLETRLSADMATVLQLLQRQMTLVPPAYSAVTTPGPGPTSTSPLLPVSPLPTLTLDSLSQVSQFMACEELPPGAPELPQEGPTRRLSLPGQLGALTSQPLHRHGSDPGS

SMILES	hERG current change (%, negative = inhibition) at 1uM [%]
COc1ccccc1C(=O)NCCOc1ccc(C)c(C)c1	15.7
COc1ccc(-n2cc(CNCCc3ncc(C)[nH]3)c(-c3ccccc3Cl)n2)cc1	-9.71
Cl.OC(COCc1ccc(Cl)cc1)CN1CCc2ccccc2C1 (stereo not drawn)	-27.3
Cc1ccc(SC(C)C(=O)NC(N)=O)c(C)c1 (stereo not drawn)	16.5
CC(C)N(C(=O)COC(=O)c1cccc(C(=O)OCC(=O)N(C(C)C)C(C)C)n1)C(C)C	14.7
Cc1nc2ccccc2n1CCc1nc2c3ccccc3nc(=S)n2[nH]1	0.137
CCC(Sc1ncccc1C(=O)O)C(=O)N1CCOCC1 (stereo not drawn)	1.01
Cc1ccc(NC(=O)C2CCCC2)cc1S(=O)(=O)N1CCOCC1	-0.761
CCOC(=O)CC1CCCCN1Cc1nc(-c2ccc(F)c(OC)c2)oc1C (stereo not drawn)	-2.09
O=C(NCCCN1CCN(CCCNC(=O)c2ccccc2F)CC1)c1ccccc1F	-7.16
CCCN1CCC(N2CCCC(C(=O)O)C2)CC1.Cl (stereo not drawn)	16.4
O=C(CN1CCN(C(c2ccccc2)c2ccccc2)CC1)N1N=CCC1c1ccccc1 (stereo not drawn)	-5.07
CCC(=O)NCc1ccc(-c2nc3ncccc3o2)cc1	15.1
CCN1CCCC1Cn1cnc2c([nH]c3cc(OC)ccc32)c1=O (stereo not drawn)	-53.5
COCc1cc(CN(C)C(=O)c2oc3c(F)cccc3c2C)[nH]n1	10.3
C=CCN1C=C2C(=O)C(C)(OC(=O)CCC(=O)OC)C(=O)C(Br)=C2C=C1c1ccc(OC)cc1 (stereo not drawn)	7.67
CN(C)CCNC(=O)c1cc2sc3ccccc3c2s1.Cl	9.53
CC1CN(C(=O)CCC(=O)N2CCC3(CC2)OCCO3)c2cc(Cl)ccc2O1 (stereo not drawn)	4.85
COc1ccc(Cc2nnc(NC(=O)CSc3ccc(C)cc3)s2)cc1OC	4.74
N#CCCn1cc(C=C2C(=O)NC(=O)NC2=O)c(-c2ccccc2)n1	15.9
O=S(=O)(NC1CCCc2ccccc21)c1cnc[nH]1 (stereo not drawn)	7.53
COC(=O)CN(C(=S)Nc1ccccc1)C1CC(=O)N(c2ccc(OC)cc2)C1=O (stereo not drawn)	5.55
CCn1c(Cc2ccccc2)nnc1SCC(=O)Nc1nnc(-c2ccccc2)s1	11.7

SMILES	hERG current change (%, negative = inhibition) at 1uM [%]
CC(C)(Oc1ccc(Cl)cc1)C(=O)Nc1c2c(nn1C(C)(C)C)CS(=O)(=O)C2	-25.1
CCCCCCc1cc2cc(-c3nnc(-c4ccccc4O)o3)c(=O)oc2cc1O	-4.81
Cc1ccc(/S(C)=N/S(=O)(=O)c2ccc(C)cc2)cc1 (stereo not drawn)	10.7
O=C(NCc1ccco1)c1ccccc1	4.69
O=C(O)C(=O)O.OCCN1CCN(CC(O)COC(c2ccc(F)cc2)c2ccc(F)cc2)CC1 (stereo not drawn)	-20.2
O=C(CCC1CCCN(C(=O)c2ccoc2)C1)NCc1ccc(F)c(F)c1 (stereo not drawn)	3.67
CCCOc1ccc(C(=O)NNC(=S)NC(=O)c2ccco2)cc1	11.7
Cc1cc(NC(=O)CCC(=O)N(Cc2ccccc2)C2(C(=O)NC3CCCCC3)CCCC2)no1	8.05
CCN(CC)CCCNc1nc(N)c([N+](=O)[O-])c(N2CCCCCC2)n1	1.42
CC(=O)Nc1ccc(NC(=O)CCNS(=O)(=O)c2cccc3nsnc23)cc1	18.9
COc1ccc(NC(=O)Cc2ccccc2F)cn1	-6.84
CC1Cc2ccccc2N1C(=O)/C=C/c1cccc(F)c1 (stereo not drawn)	13.3
COc1ccc(CN2CCCCC2c2cccnc2)cc1C (stereo not drawn)	10.1
C=CCOc1ccc(C=Nc2ccc(C)c(Cl)c2)c(O)c1	11.2
CCOC(=O)C1CCCCN1S(=O)(=O)c1cc2c(cc1C)NC(=O)CO2 (stereo not drawn)	-1.58
CC1CCCN(CCCOc2ccc(Br)cc2Cl)C1.O=C(O)C(=O)O (stereo not drawn)	-46.1
Cc1cc(C)[n+](-c2ccc(C(C)C)cc2)c2[nH]c(=O)[nH]c(=O)c12.[I-]	-1.23
COc1cccc(CNc2ccc([N+](=O)[O-])cc2C)c1	10.7
CC1(C)CC(=O)C2=C(C1)N=C1SCCC(=O)N1C2c1ccccc1 (stereo not drawn)	7.18
O=C(CCSCc1cccc(Cl)c1)NC1CCCC1	2.44
Cn1cnc([N+](=O)[O-])c1Sc1ccc(Br)cc1	10.6
Cl.OCCNCCNCc1ccccc1OCc1ccccc1	11.1
O=C1CCCc2c1cc(C(=O)O)c(=O)n2-c1ccccc1	13.7

SMILES	hERG current change (%, negative = inhibition) at 1uM [%]
COc1cccc(C(=O)NCCS(=O)(=O)N2CCN(C(=O)c3ccco3)CC2)c1	1.81
CCOC(=O)c1c(N)n(C2CC(C)(C)NC(C)(C)C2)c2nc3ccccc3nc12	-1.51
COc1ccccc1/C=C(/CC(=O)NCc1ccc(F)cc1)c1nc2ccccc2s1	1.42
Cc1ccc(/C=N/Nc2nnc(Cl)c3ccccc23)cc1	-1.46
O=C(Nc1ccc(N2CCCCC2)cc1)c1cccnc1	4.84
N#Cc1cn(-c2ccccc2)nc1C(=O)c1ccccc1	-3
Cc1ccc(S(=O)(=O)N2CCC(C(=O)NCc3ccccc3Cl)CC2)cc1	3.46
C=C(C)Cn1c(N2CCCC2)nc2c1c(=O)n(C)c(=O)n2C	15.7
Cc1c(Cl)cccc1NC(=O)CNC(=O)C1CC(=O)N(CCc2ccccc2)C1 (stereo not drawn)	8.56
O=C(OCc1ccc([N+](=O)[O-])cc1)c1ccc(N2CCCC2)c([N+](=O)[O-])c1	1.62
Cc1ccc(N2C(=O)NC(=O)C3(Cc4ccccc4N4CCCC43)C2=O)cc1 (stereo not drawn)	-3.63
O=C(O)c1ccccc1C(=O)NNc1cccc(Cl)n1	11.5
Cc1cc(C)cc(OCC(=O)NCCc2nc3ccccc3[nH]2)c1	-9.57
COc1ccccc1CNC(=O)c1[nH]c(C)c(C(C)=O)c1C	18.8
O=C(COc1ccccc1)Nc1ccc(S(=O)(=O)N2CCCC2)cc1	8.48
O=C(COc1ccc(F)cc1)Nc1ccc(-n2cnnn2)cc1	-27.2
CCOC(=O)NC1(C(F)(F)F)N=C(c2ccccc2)NC1=O (stereo not drawn)	10.9
O=C1C=C(O)CC(c2ccc(Cl)c(Cl)c2)C1 (stereo not drawn)	-15
N/C(=N\OC(=O)CCCN1C(=O)c2ccccc2C1=O)c1ccccn1	14
COc1ccc(-c2ccc(-c3nc4ccc(C)cn4c3NC3CCCCC3)cc2OC)cc1.O=C(O)C(F)(F)F	13.2
COc1ccccc1CNC(=O)CCNS(=O)(=O)c1ccc2c(c1)CC(C)N2C(C)=O (stereo not drawn)	25.6
CCCc1nnc(SCC(=O)O)n1CC	6.9
CC(=O)N1CCc2cc(S(=O)(=O)CCC(=O)N3CCC(C)CC3)ccc21	15.5

SMILES	hERG current change (%, negative = inhibition) at 1uM [%]
Cn1nnnc1SCc1nc2scc(-c3ccccc3)c2c(=O)[nH]1	13.9
Cc1cc(C(=O)NNC(=O)c2cccc(C(F)(F)F)c2)no1	11.5
CN(C)CCCN(C(=O)c1ccc(S(=O)(=O)N2CCOCC2)cc1)c1nc2cc3c(cc2s1)OCO3.Cl	-21.5
COc1ccccc1C(=O)Nc1ccccc1SC	0.922
CC1CC(=O)C2=C(C1)Nc1nc3ccccc3n1C2c1cccnc1 (stereo not drawn)	-8.22
CN(C)c1ccc(/C=C(\NC(=O)c2ccccc2)C(=O)NCCCn2ccnc2)cc1	9.45
CC(Oc1cc2oc(=O)c3c(c2cc1Cl)CCCC3)C(=O)NCC1CCC(C(=O)O)CC1 (stereo not drawn)	14
Cc1ccc(OC(=O)c2sc(Cl)nc2C)cc1C	2.33
CN(C)c1ccc(NC(=O)CCN2CCN(c3ccccn3)CC2)cc1	17.9
Cc1ccc(NS(=O)(=O)c2ccc(-n3cccn3)cc2)c(C)c1	16.4
Cc1ccccc1CC(=O)NCc1cccnc1	11.7
CCOC(=O)/C(=N\Nc1ccccc1Cl)N1CC(C)OC(C)C1 (stereo not drawn)	14.5
CCOC(=O)C1=C(COC(=O)/C=C/c2ccc(OCC)c(OC)c2)NC(=O)NC1C (stereo not drawn)	14.8
N#Cc1cn(CC(=O)NCCc2c[nH]c3ccccc23)c2ccccc12	9.33
Cc1ccc(-c2nc(CN(C)C(C3CC3)C3CC3)c(C)o2)cc1	-10.7
O=C(Nc1cccc(C(F)(F)F)c1)C1(c2ccccc2)CC1	7.82
Cc1ccccc1OCC(=O)Nc1nnc(-c2ccco2)s1	2.15
O=C(CSc1nc2[nH]ncc2c(=O)[nH]1)Nc1ccc(Cl)cc1	6.52
O=C(Nc1c(F)cc(F)cc1Br)c1cc(-c2ccccc2)on1	16.4
CC(=O)Nc1ccc(NC(=O)C2CCN(S(=O)(=O)c3ccc4c(c3)OCCO4)CC2)cc1	13.7
CCOc1cc(C2NC(=O)NC(C)=C2C(C)=O)cc(Cl)c1OCC(=O)O (stereo not drawn)	7.05
